Experimental data reported in the RNAGym collection of RNA variant scans (doi:10.7554/elife.90254).
The source gives no read counts; variants with many changes may rest on few reads.

B1: LINE1-mini (parent)
chain: GGCAGAGCUCAACACAGCGUGGCAAAGUGGCUGUGGCUAGACUGCC

Variants of: B1
Assay: self-cleavage, relative activity (ratio to wild type); higher = more cleavage; in vitro, sequencing; the parent is a self-cleaving ribozyme

| Variant | self-cleavage |
| --- | --- |
| GGCAGCGCUCAACACAGCGUGUCAAAGUGGCUGUGACUAGACUGCC | 0.13 |
| GGCAGAGCACAACACAGCGUGGCAAUAUGGCUGUGGCCAGACUACC | 0.03 |
| GGCAGAGCCCAACACAGCGUGGCAAAGGGGCUGUAGCUAGACUGCC | 0.03 |
| CGCAGAGCUAAACACAGCGUGACAAAGUGGCUGUGGCGAGACUGCC | 0.02 |
| GGCAGAGCUCAACACAGCCUGGAAAAGUGGCUGUGGUUAGACUGCC | 0.03 |
| GGUAGAGCUCAACACAGCGUUGCAGAGUGGCUGUGGGUAGACUGCC | 0.01 |
| GGCAGGGCUCAACACAGCGUAGCAAAGUUGCUGUGGUUAGACUGCC | 0.03 |
| GGCAGAGCUCAACACAGCGUGCCAAAGUGGCUGUGUCUAGAUUGCG | 0.02 |
| GGCAGAGCUCAACACAGCGUGGCAGAGUUGCUGUGGGUAGACUGCC | 0.03 |
| GGCAGAGCUCAACACAGCAUGACAAAGUGGCUGUGGUUAGACUGCC | 0.03 |
| GGCAGAGCUAAACAAAACGUUGCAAAGUGGCUGUGGCUAGACUGCC | 0.06 |
| GGCAGAGCUCGACACAGCGUGGCAAGGUGGCUUGGGCUAGACAGCG | 0.01 |
| GGCAGAGCUCAACCCCGCGUGGCAAAGUGGCUGUGGAUAGACUGCC | 0.03 |
| GGCAGAGCUCAACACAGCGUGGCAAAGUGCCUGUGGCUAGAUUGAC | 0.02 |
| GGCAAAGCUCAACACAGCGUGUUAAGGUGGCUGUGGCUAGACUGCC | 0.58 |
| GGAGGAGCUAAUCACAGCGUGGCAAAGUGACAGUCGCUAGACUGCC | 0.01 |
| GGUAGAGCUCAAGACAGCGUGGCUAAGUGGCAGUGGCUAGACUGCC | 0.06 |
| GGCAGAGCUCAAUUCAGCGUUGCAAAGUGCCUGUGGCUAGACUGCC | 0.05 |
| GGCAGAGCUCAACCCGGGGUUGCAAAGUGGCUGUGGCUCGACUGCC | 0.03 |

| Variant | self-cleavage |
| --- | --- |
| GCAAGUGCUCAACACAGCGUGGCAAAGUGGCUGUAGCUAGACUGCC | 0.03 |
| GGCAGAGCUCAACACGGAGUGGAAAAGUGGCUGUGGCUAGAGUGCC | 0.01 |
| GGCAGUGGUCAACACAGCGUGGCAAAGUGGAUGUGGCUAGACUGAC | 0.02 |
| GGCAGGGCUCAACACAGCGUGGCCAAGUGGCUGUGUCUAGACUGCC | 0.09 |
| UCCAGAGCUCAACACAGCGUGUCAAAGUGGCUGUGGCUAGACUGCC | 0.05 |
| GGCAGAGCACCACACAGCGUGGCAAAGUGGCUGUCGCUAGACUGCC | 0.02 |
| GGCAAAGGUCAACACCGCGUGGCAAAGUGGCUGUGGCUAGACUGCA | 0.03 |
| CGCAGAGCUCAACACAGUGUGGCAAACUGGCUGUAUCUAGACUGCG | 0.03 |
| GGCAGAGCUCAACACAGCGUGACACAAUGGCUGUGGCUAGACUGCC | 0.78 |
| UGCAGAGCUUUACACAGCGUGGCAAAGUGGCUUUGGCUAGACUGCC | 0.01 |
| GGGAUAGCUCAAGACAGCGUGCCAAAGUGGCUGUGGCUAGCCUGCC | 0.03 |
| GGCAGAGCUCAACACAGCGUGGCAAAGUGGCAGUGGCUAGAAUGGC | 0.04 |
| GCCAGAGCUCAACAAAGCGUGGCAAAGUGGCUGUGGCUAGAUUGCC | 0.06 |
| GGAAGAACUCAACACAGCAUGGCAAAGUGGUUGUGGCUAGACUGCC | 1.4 |
| GGCGGAGCUCAACACAGCGUGACAAAGUGGCUGUGGCUAGACAGCA | 0.05 |
| GGGUGAGCUCAACACAGCGUGGCAAAGUGGCUUUGGCUAGACUGCC | 0.12 |
| GGCAUAGCUCAACACAGCGUGGCAAACUGGCUGUGGCUAGAGUGCC | 0.03 |
| GGCAGAGCUCAACAGAGCGGGGCAAAGUAGCUGUGGCUAGACUGCC | 0.01 |
| AGCAGAGCUCAACACAGCGUUGCAAAAUGGCUGUGGCUAGACUGCC | 0.78 |

| Variant | self-cleavage |
| --- | --- |
| GGCAGAGCUCAACACAGCGUGGCAAAGUUGAUGUGGCUAGACUGCU | 0.05 |
| GGCAUUGCUCAACACAGCAUGGCAAAGUGGCUGUGGCUAGACUGCC | 0.52 |
| UGCAGAGCUCAACACAACGUGGCAAAGUGGCCGUGGCUAGACUGCC | 0.02 |
| GGCAGAGCUCAUCACAGCGUGGCAAAGUGGUUGUCGCUGGACUGCC | 0.01 |
| GGCAGAGCUCAACACAGCCUGGCAAAGUGGCUGUCGCUAUACUGCC | 0.07 |
| GGCAGAGAUCAACACAGCGCGGCAACGUGGCUUUAGCUAAACUGCC | 0.15 |
| GGCGGAGCUCCACACAGCGUGGCAAAGUCGCUGUGGCUAGAUUGCC | 0.01 |
| GGCAUAUCUCAACACAGCGUGGCACAGUGGCUGUGGCUAGACAGCC | 0.13 |
| GGGAGACCUCAACACCGCGUGGCAAAGUGGCUGUUGAUAGACUGCC | 0 |
| GGCAGAGCUAAACACAGCGUGGCAAAGAGGAUGUGGCUAGACUGCC | 0.05 |
| GGCAGAGCUCAACACAGCGUGGCACAUUGGCUGUGGUUAGACUGCC | 0.07 |
| GGCAGGGCUCAACACAGCGGAGCAAAGUGCCUGUGGCUAGACUGCC | 0.06 |
| GGCAGAGCUCAACACAGCGUGGCAAAGUGGCUGUAGCUACCCAGCC | 0.03 |
| GGCAGAGCUCAACACAGCUUGGCAAAGUGAUUGUGGCUCGACUGCC | 0.03 |
| GGCAGAACUCAACACAGCGUGACAAAGUGGGUAUGGCUAGACUGCC | 0.13 |
| GGCAGAGCUCAACACAGCGUGGUAAAGUGGCUGGGGCUAGAGUGCC | 0.01 |
| GGCAGAGCAAAAAACAGCGUGGCAAAGUGGCUGUGGCUAGACAGCC | 0.08 |
| GGCAGUGCUCCACACAGCGUGGCGAAGUGGCUUUGGCUAGACUGCC | 0 |
